In article PMC9911399, “Two distinct binding modes provide the RNA-binding protein RbFox with extraordinary sequence specificity”:
Substitutions are numbered along the chain they refer to; changes in the protein carry UniProt numbers. The list shows a part of the results.

T1: RBFOX1 RRM (Homo sapiens, UniProt Q9NWB1 109-208)
T1 sequence: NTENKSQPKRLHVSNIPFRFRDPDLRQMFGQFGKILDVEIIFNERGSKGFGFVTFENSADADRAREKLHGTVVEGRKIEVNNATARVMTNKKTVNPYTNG

B1: UCGGGGG (DNA:RNA)
RNA: GGGAGACCGGAAUUCAGAUUGUCCUCGGGGGUUAAAUCCCGUCGUAGCCACCA
DNA 1: CAATCTGAATTCCGGTCTCCC
DNA 2: TGGTGGCTACGACGGGATT
B2: GCUUCCA (DNA:RNA)
RNA: B1 RNA with U25G, G27U, G28U, G29C, G30C, G31A
DNA 1: CAATCTGAATTCCGGTCTCCC
DNA 2: TGGTGGCTACGACGGGATT
B3: CUAAAGA (DNA:RNA)
RNA: B1 RNA with U25C, C26U, G27A, G28A, G29A, G31A
DNA 1: CAATCTGAATTCCGGTCTCCC
DNA 2: TGGTGGCTACGACGGGATT
B4: UGACAUC (DNA:RNA)
RNA: B1 RNA with C26G, G27A, G28C, G29A, G30U, G31C
DNA 1: CAATCTGAATTCCGGTCTCCC
DNA 2: TGGTGGCTACGACGGGATT
B5: CCCGACG (DNA:RNA)
RNA: B1 RNA with U25C, G27C, G29A, G30C
DNA 1: CAATCTGAATTCCGGTCTCCC
DNA 2: TGGTGGCTACGACGGGATT
B6: UGAUUGC (DNA:RNA)
RNA: B1 RNA with C26G, G27A, G28U, G29U, G31C
DNA 1: CAATCTGAATTCCGGTCTCCC
DNA 2: TGGTGGCTACGACGGGATT
B7: CGUUACU (DNA:RNA)
RNA: GGGAGACCGGAAUUCAGAUUGUCCCGUUACUUUAAAUCCCGUCGUAGCCACCA
DNA 1: CAATCTGAATTCCGGTCTCCC
DNA 2: TGGTGGCTACGACGGGATT
B8: GAGACUG (DNA:RNA)
RNA: B1 RNA with U25G, C26A, G28A, G29C, G30U
DNA 1: CAATCTGAATTCCGGTCTCCC
DNA 2: TGGTGGCTACGACGGGATT
B9: GGUUCAC (DNA:RNA)
RNA: B7 RNA with C25G, A29C, C30A, U31C
DNA 1: CAATCTGAATTCCGGTCTCCC
DNA 2: TGGTGGCTACGACGGGATT
B10: ACCCUCC (DNA:RNA)
RNA: B7 RNA with C25A, G26C, U27C, U28C, A29U, U31C
DNA 1: CAATCTGAATTCCGGTCTCCC
DNA 2: TGGTGGCTACGACGGGATT
B11: AGACUAC (DNA:RNA)
RNA: B7 RNA with C25A, U27A, U28C, A29U, C30A, U31C
DNA 1: CAATCTGAATTCCGGTCTCCC
DNA 2: TGGTGGCTACGACGGGATT
B12: GGGUCCU (DNA:RNA)
RNA: B7 RNA with C25G, U27G, A29C
DNA 1: CAATCTGAATTCCGGTCTCCC
DNA 2: TGGTGGCTACGACGGGATT
B13: GAAAACA (DNA:RNA)
RNA: B7 RNA with C25G, G26A, U27A, U28A, U31A
DNA 1: CAATCTGAATTCCGGTCTCCC
DNA 2: TGGTGGCTACGACGGGATT
B14: AAUCUAA (DNA:RNA)
RNA: B7 RNA with C25A, G26A, U28C, A29U, C30A, U31A
DNA 1: CAATCTGAATTCCGGTCTCCC
DNA 2: TGGTGGCTACGACGGGATT
B15: UGAGCCA (DNA:RNA)
RNA: B7 RNA with C25U, U27A, U28G, A29C, U31A
DNA 1: CAATCTGAATTCCGGTCTCCC
DNA 2: TGGTGGCTACGACGGGATT
B16: CGGACCC (DNA:RNA)
RNA: B7 RNA with U27G, U28A, A29C, U31C
DNA 1: CAATCTGAATTCCGGTCTCCC
DNA 2: TGGTGGCTACGACGGGATT
B17: ACGCACU (DNA:RNA)
RNA: B7 RNA with C25A, G26C, U27G, U28C
DNA 1: CAATCTGAATTCCGGTCTCCC
DNA 2: TGGTGGCTACGACGGGATT
B18: UACUACC (DNA:RNA)
RNA: B7 RNA with C25U, G26A, U27C, U31C
DNA 1: CAATCTGAATTCCGGTCTCCC
DNA 2: TGGTGGCTACGACGGGATT
B19: GACCAUA (DNA:RNA)
RNA: B7 RNA with C25G, G26A, U27C, U28C, C30U, U31A
DNA 1: CAATCTGAATTCCGGTCTCCC
DNA 2: TGGTGGCTACGACGGGATT
B20: GCGGUUU (DNA:RNA)
RNA: B1 RNA with U25G, G29U, G30U, G31U
DNA 1: CAATCTGAATTCCGGTCTCCC
DNA 2: TGGTGGCTACGACGGGATT
B21: AAACACG (DNA:RNA)
RNA: B7 RNA with C25A, G26A, U27A, U28C, U31G
DNA 1: CAATCTGAATTCCGGTCTCCC
DNA 2: TGGTGGCTACGACGGGATT
B22: AACUGUA (DNA:RNA)
RNA: B7 RNA with C25A, G26A, U27C, A29G, C30U, U31A
DNA 1: CAATCTGAATTCCGGTCTCCC
DNA 2: TGGTGGCTACGACGGGATT
B23: CUCCUGG (DNA:RNA)
RNA: B1 RNA with U25C, C26U, G27C, G28C, G29U
DNA 1: CAATCTGAATTCCGGTCTCCC
DNA 2: TGGTGGCTACGACGGGATT
B24: CACAGUG (DNA:RNA)
RNA: B1 RNA with U25C, C26A, G27C, G28A, G30U
DNA 1: CAATCTGAATTCCGGTCTCCC
DNA 2: TGGTGGCTACGACGGGATT
B25: GAUUGUG (DNA:RNA)
RNA: B7 RNA with C25G, G26A, A29G, C30U, U31G
DNA 1: CAATCTGAATTCCGGTCTCCC
DNA 2: TGGTGGCTACGACGGGATT
B26: UCAAGGA (DNA:RNA)
RNA: B1 RNA with G27A, G28A, G31A
DNA 1: CAATCTGAATTCCGGTCTCCC
DNA 2: TGGTGGCTACGACGGGATT
B27: CUUAAUG (DNA:RNA)
RNA: B7 RNA with G26U, U28A, C30U, U31G
DNA 1: CAATCTGAATTCCGGTCTCCC
DNA 2: TGGTGGCTACGACGGGATT
B28: CGCUCUC (DNA:RNA)
RNA: B7 RNA with U27C, A29C, C30U, U31C
DNA 1: CAATCTGAATTCCGGTCTCCC
DNA 2: TGGTGGCTACGACGGGATT
B29: UCGUUGU (DNA:RNA)
RNA: B1 RNA with G28U, G29U, G31U
DNA 1: CAATCTGAATTCCGGTCTCCC
DNA 2: TGGTGGCTACGACGGGATT
B30: CCGUAUA (DNA:RNA)
RNA: B7 RNA with G26C, U27G, C30U, U31A
DNA 1: CAATCTGAATTCCGGTCTCCC
DNA 2: TGGTGGCTACGACGGGATT
B31: CGAUCUG (DNA:RNA)
RNA: B7 RNA with U27A, A29C, C30U, U31G
DNA 1: CAATCTGAATTCCGGTCTCCC
DNA 2: TGGTGGCTACGACGGGATT

Target: T1, RBFOX1 RRM
Test: EMSA; HiTS-Eq, 1 nM pool, 10 min; buffer printed only for the single-RNA assays: 10 mM Tris pH 7.5, 150 mM NaCl, 3.4 mM EDTA, 0.001% NP-40, 30 C
Settings: tags: His6 N-terminal (pET28a); label: 5' 32P
Outline: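 Purified RbFox RRM (wild type or mutant) was equilibrated for 10 min in 50 µL with 1 nM of a 5′-radiolabelled pool of RNA with 7 randomized nucleotides, its flanks annealed to DNA oligonucleotides, across increasing protein concentrations. Free RNA was separated by 8% native PAGE, excised, reverse-transcribed, PCR-barcoded and sequenced on an Illumina HiSeq 2500. Relative association constants came from read-count changes of each variant against the control reaction, normalised to the cognate motif.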

| Binder | binding signal |
| --- | --- |
| B1 | 0.0101 KA relative to UGCAUGU |
| B2 | 0.00903 KA relative to UGCAUGU |
| B3 | 0.0053 KA relative to UGCAUGU |
| B4 | 0.0111 KA relative to UGCAUGU |
| B5 | 0.0192 KA relative to UGCAUGU |
| B6 | 0.0265 KA relative to UGCAUGU |
| B7 | 0.00711 KA relative to UGCAUGU |
| B8 | 0.0149 KA relative to UGCAUGU |
| B9 | 0.0163 KA relative to UGCAUGU |
| B10 | 0.000977 KA relative to UGCAUGU |
| B11 | 0.00512 KA relative to UGCAUGU |
| B12 | 0.016 KA relative to UGCAUGU |
| B13 | 0.00224 KA relative to UGCAUGU |
| B14 | 0.00253 KA relative to UGCAUGU |
| B15 | 0.00784 KA relative to UGCAUGU |
| B16 | 0.0213 KA relative to UGCAUGU |

| Binder | binding signal |
| --- | --- |
| B17 | 0.00728 KA relative to UGCAUGU |
| B18 | 0.0026 KA relative to UGCAUGU |
| B19 | 0.000784 KA relative to UGCAUGU |
| B20 | 0.0229 KA relative to UGCAUGU |
| B21 | 0.00204 KA relative to UGCAUGU |
| B22 | 0.0028 KA relative to UGCAUGU |
| B23 | 0.0165 KA relative to UGCAUGU |
| B24 | 0.00627 KA relative to UGCAUGU |
| B25 | 0.0275 KA relative to UGCAUGU |
| B26 | 0.00364 KA relative to UGCAUGU |
| B27 | 0.00937 KA relative to UGCAUGU |
| B28 | 0.0105 KA relative to UGCAUGU |
| B29 | 0.025 KA relative to UGCAUGU |
| B30 | 0.00237 KA relative to UGCAUGU |
| B31 | 0.0167 KA relative to UGCAUGU |
